Experimental data taken from PMC4081100.
Only a part is listed here, and it is no random draw. For some assays here: At the low end of the ranking the order means little. Some of the results follow. For some assays here: The source does not settle which construct or isoform was used.

Assays:
Experiment in all cases: universal protein binding microarray (PBM)
Details in all cases: transcription factors of Arabidopsis thaliana; high values mean tight binding; most listed sequences are background and not binding sites; double strand, one strand shown
[1] = target: T1, GST-ANAC092(1-176) (UniProt Q9FKA0)
T1 sequence: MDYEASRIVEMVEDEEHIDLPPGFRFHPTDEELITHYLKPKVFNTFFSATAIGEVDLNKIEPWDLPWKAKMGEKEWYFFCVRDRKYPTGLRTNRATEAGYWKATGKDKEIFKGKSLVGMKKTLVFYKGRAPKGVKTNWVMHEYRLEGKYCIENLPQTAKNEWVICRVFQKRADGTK

[2] = target: T2, GST-ANAC019 NAC domain (UniProt Q9C932)
T2 sequence: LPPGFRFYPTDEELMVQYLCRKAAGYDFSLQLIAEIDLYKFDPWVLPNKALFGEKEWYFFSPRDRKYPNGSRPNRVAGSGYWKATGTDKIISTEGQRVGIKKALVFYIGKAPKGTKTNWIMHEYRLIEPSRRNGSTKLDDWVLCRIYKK

[3] = target: T3, GST-ANAC092(1-285) full length (UniProt Q9FKA0)
T3 sequence: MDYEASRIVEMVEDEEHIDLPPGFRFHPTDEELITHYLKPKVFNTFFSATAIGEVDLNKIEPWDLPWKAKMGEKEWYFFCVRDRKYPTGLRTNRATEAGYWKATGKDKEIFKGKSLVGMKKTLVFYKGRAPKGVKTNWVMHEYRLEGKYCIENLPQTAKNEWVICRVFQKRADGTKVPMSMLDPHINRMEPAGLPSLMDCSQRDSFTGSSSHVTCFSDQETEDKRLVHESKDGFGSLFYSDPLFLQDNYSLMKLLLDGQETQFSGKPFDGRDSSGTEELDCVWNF

[4] = target: T4, GST-NAP(1-166) (UniProt O49255)
T4 sequence: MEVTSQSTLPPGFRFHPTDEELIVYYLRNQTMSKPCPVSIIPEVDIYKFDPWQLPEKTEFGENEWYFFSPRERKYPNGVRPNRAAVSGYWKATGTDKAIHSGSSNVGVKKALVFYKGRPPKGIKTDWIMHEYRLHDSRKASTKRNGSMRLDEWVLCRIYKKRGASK

[5] = target: T5, GST-NST2(1-184) (UniProt Q9M274)
T5 sequence: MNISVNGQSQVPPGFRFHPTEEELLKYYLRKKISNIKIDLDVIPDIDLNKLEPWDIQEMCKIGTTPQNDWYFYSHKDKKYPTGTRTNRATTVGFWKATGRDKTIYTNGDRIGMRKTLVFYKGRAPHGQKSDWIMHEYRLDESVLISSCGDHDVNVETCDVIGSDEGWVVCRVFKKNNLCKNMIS

[6] = target: T6, GST-NTL8 NAC domain (UniProt Q9XIN7)
T6 sequence: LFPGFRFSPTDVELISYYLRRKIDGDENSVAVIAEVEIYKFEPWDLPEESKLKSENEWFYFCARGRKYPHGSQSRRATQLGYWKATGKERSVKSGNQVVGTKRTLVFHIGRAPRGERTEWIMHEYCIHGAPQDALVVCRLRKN

[7] = target: T7, GST-SND1(1-203) (UniProt Q9LPI7)
T7 sequence: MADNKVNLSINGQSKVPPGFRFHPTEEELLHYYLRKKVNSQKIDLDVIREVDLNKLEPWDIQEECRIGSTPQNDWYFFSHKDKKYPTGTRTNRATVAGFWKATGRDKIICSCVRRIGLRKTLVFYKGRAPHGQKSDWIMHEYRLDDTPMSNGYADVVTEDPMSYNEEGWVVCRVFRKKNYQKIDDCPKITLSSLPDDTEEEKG

[8] = target: T8, GST-VND3 NAC domain (UniProt Q9FH59)
T8 sequence: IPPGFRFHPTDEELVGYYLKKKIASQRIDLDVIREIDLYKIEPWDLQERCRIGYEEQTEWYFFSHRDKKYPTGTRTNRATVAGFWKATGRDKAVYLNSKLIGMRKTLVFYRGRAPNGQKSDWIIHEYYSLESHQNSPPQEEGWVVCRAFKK

[9] = target: T9, GST-VOZ2 (Arabidopsis thaliana) (UniProt Q9SLB9)
T9 sequence: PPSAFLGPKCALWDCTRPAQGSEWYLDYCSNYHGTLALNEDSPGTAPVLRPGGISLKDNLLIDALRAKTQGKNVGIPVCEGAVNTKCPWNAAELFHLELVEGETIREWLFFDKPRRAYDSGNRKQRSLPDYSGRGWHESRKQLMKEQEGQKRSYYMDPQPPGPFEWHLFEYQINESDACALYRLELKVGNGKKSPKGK

[10] = target: GST-WRKY1(266-371) (UniProt Q9SI37)
[11] = target: GST-NTL6(1-168) (UniProt Q9SCK6)
[12] = target: T10, GST-ANAC055(1-171) (UniProt Q9LDY8)
T10 sequence: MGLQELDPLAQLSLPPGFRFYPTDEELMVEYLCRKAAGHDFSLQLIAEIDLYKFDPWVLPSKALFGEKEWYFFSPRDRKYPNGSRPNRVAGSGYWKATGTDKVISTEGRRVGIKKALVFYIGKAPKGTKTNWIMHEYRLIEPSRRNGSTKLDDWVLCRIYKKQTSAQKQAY

[13] = target: T11, GST-ATAF1 NAC domain (UniProt Q39013)
T11 sequence: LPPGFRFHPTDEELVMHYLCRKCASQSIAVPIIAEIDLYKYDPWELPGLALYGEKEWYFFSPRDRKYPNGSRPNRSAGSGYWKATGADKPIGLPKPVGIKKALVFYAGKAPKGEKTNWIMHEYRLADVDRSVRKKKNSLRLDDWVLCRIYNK

[14] = target: T12, GST-VND7 NAC domain (UniProt Q9C8W9)
T12 sequence: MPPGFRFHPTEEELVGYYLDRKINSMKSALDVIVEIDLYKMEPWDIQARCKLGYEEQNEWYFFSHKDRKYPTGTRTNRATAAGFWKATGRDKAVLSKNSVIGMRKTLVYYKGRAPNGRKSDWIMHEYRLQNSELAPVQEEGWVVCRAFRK

Sequence	binding signal [1]	binding signal [2]	binding signal [3]	binding signal [4]	binding signal [5]	binding signal [6]	binding signal [7]	binding signal [8]	binding signal [9]	binding signal [10]	binding signal [11]	binding signal [12]	binding signal [13]	binding signal [14]
GTCAATAA	-0.00515 E-score	0.0176 E-score	0.0333 E-score	0.122 E-score	0.118 E-score	-0.02 E-score	0.0398 E-score	0.0493 E-score	0.0672 E-score	0.457 E-score				
GTTACGCA					0.219 E-score	0.0244 E-score	0.422 E-score	0.317 E-score	0.138 E-score	-0.195 E-score	0.0189 E-score	0.189 E-score		
CCAGTCAA			-0.0494 E-score	-0.024 E-score	-0.0404 E-score	-0.00734 E-score	0.0251 E-score	-0.0476 E-score	-0.0533 E-score		-0.0773 E-score	0.000265 E-score	0.0414 E-score	-0.0766 E-score
AGTCTGAC	0.00541 E-score	0.0699 E-score	-0.0398 E-score		-0.153 E-score	-0.0709 E-score	-0.121 E-score	0.0212 E-score	-0.146 E-score		-0.0265 E-score		0.0248 E-score	
AGAGGGAA		0.0124 E-score	-0.0523 E-score	0.111 E-score	0.0185 E-score		0.0321 E-score	0.0709 E-score	0.0616 E-score	-0.0525 E-score				
GAAGTCAA	-0.00489 E-score		-0.016 E-score	-0.0724 E-score	-0.00448 E-score	0.0673 E-score	-0.0112 E-score	0.00579 E-score	-0.127 E-score		0.104 E-score	-0.0213 E-score	0.0967 E-score	
AATTACGT						0.205 E-score	0.42 E-score	0.47 E-score	0.218 E-score		0.142 E-score			
CGTATACG						0.0435 E-score	0.0859 E-score	0.321 E-score	0.0617 E-score		0.0497 E-score			
ATTCCCTC	0.0415 E-score	0.0664 E-score	-0.181 E-score	0.0176 E-score	-0.0671 E-score		-0.0243 E-score	0.00175 E-score	0.134 E-score	-0.0495 E-score	0.115 E-score	-0.147 E-score	0.00766 E-score	
GCAAGTCA		-0.0377 E-score		0.0339 E-score		0.0445 E-score	0.175 E-score	0.115 E-score	0.00891 E-score		0.0738 E-score	0.0179 E-score	0.0771 E-score	
TACACGTA	0.382 E-score		0.411 E-score			-0.0294 E-score	0.251 E-score	0.375 E-score	0.0684 E-score	-0.0035 E-score	0.0256 E-score			
AAGTCTTC	-0.0217 E-score		-0.00808 E-score	0.0208 E-score	0.0164 E-score	0.0771 E-score	-0.0646 E-score	0.123 E-score	-0.032 E-score	0.429 E-score		0.0748 E-score		
ATTAAGTA		0.0145 E-score		0.0294 E-score		0.0105 E-score	0.267 E-score		0.117 E-score	-0.0971 E-score				-0.0662 E-score
AAAGTCAT	-0.0947 E-score	-0.0526 E-score		0.0502 E-score		0.00176 E-score	0.162 E-score		-0.0359 E-score	0.428 E-score	0.00983 E-score	0.0225 E-score		
TAGTCAAA	-0.102 E-score	-0.0285 E-score	0.0255 E-score	-0.0307 E-score	-0.0388 E-score	0.0243 E-score	-0.0706 E-score		-0.00959 E-score		-0.112 E-score			0.049 E-score
TTCGTCAA	-0.018 E-score	-0.069 E-score		0.0113 E-score	0.0662 E-score	-0.156 E-score	-0.0342 E-score		-0.0162 E-score		0.0728 E-score			-0.0377 E-score

Sequence	binding signal [1]	binding signal [2]	binding signal [3]	binding signal [4]	binding signal [5]	binding signal [6]	binding signal [7]	binding signal [8]	binding signal [9]	binding signal [10]	binding signal [11]	binding signal [12]	binding signal [13]	binding signal [14]
CTTGCTTA				-0.125 E-score	0.17 E-score	0.194 E-score	0.437 E-score		-0.0577 E-score	-0.15 E-score		0.00374 E-score		0.0501 E-score
TGGTCAAA		-0.0774 E-score		0.0186 E-score	-0.0943 E-score	-0.0734 E-score	-0.00128 E-score		0.0882 E-score		-0.00392 E-score	0.0433 E-score		-0.0711 E-score
AAGGGAAA		0.045 E-score		-0.0119 E-score	-0.0345 E-score		0.117 E-score		0.0974 E-score	-0.11 E-score		0.047 E-score		0.0885 E-score
TAGTCAGA	-0.0794 E-score	0.0162 E-score	-0.0943 E-score	0.0312 E-score	-0.0214 E-score	0.0192 E-score	-0.0311 E-score		-0.214 E-score		-0.0844 E-score	0.0265 E-score		-0.0395 E-score
AACACGCT						-0.00494 E-score	0.227 E-score		0.00831 E-score	0.0117 E-score	0.134 E-score			0.142 E-score
ATGGTCAA	-0.034 E-score	-0.0837 E-score	0.00072 E-score	-0.00677 E-score		-0.0918 E-score	-0.152 E-score		0.0713 E-score					-0.0619 E-score
TACGCCAA				0.0428 E-score		0.0846 E-score	0.454 E-score		0.187 E-score	-0.138 E-score			0.309 E-score	0.244 E-score
ATATTGAC	-0.0563 E-score	-0.1 E-score	0.0114 E-score	0.178 E-score	0.0439 E-score	-0.0853 E-score	-0.0493 E-score		0.109 E-score	0.453 E-score	0.00136 E-score	0.0422 E-score		
ATAAGTCA	-0.105 E-score	-0.187 E-score		0.0206 E-score	0.02 E-score	-0.17 E-score	-0.00925 E-score		-0.116 E-score		0.161 E-score	0.0197 E-score	-0.0328 E-score	-0.0348 E-score
AGGGTAAT		0.116 E-score	0.108 E-score	0.0149 E-score	0.0716 E-score		0.0326 E-score		0.0602 E-score	-0.0594 E-score		0.17 E-score	0.114 E-score	0.0425 E-score
AGTTGACG		0.0919 E-score	-0.00485 E-score	0.0554 E-score		-0.141 E-score	0.198 E-score		0.0618 E-score		-0.0706 E-score		0.213 E-score	0.0414 E-score
CCAAGCAA			0.356 E-score	-0.0807 E-score		0.0676 E-score	0.405 E-score		0.0795 E-score	-0.0823 E-score				0.0241 E-score
AATTGACC	0.0284 E-score	-0.0179 E-score	0.0323 E-score	-0.0234 E-score		0.0822 E-score	0.0323 E-score		0.158 E-score		-0.0267 E-score			0.0269 E-score
ATTGACCA		-0.0895 E-score		-0.0299 E-score	-0.0512 E-score	0.163 E-score	-0.0675 E-score		0.11 E-score		0.0183 E-score			0.0794 E-score
CCTTACCC	0.0229 E-score	-0.0309 E-score		-0.000545 E-score	-0.0517 E-score	0.404 E-score	0.167 E-score		0.187 E-score	-0.0586 E-score	0.366 E-score	-0.111 E-score	-0.0121 E-score	
